Experimental data from the supplement of paper PMC3334620.
Over roughly 33,000 sequences, “E-score (-0.5 to 0.5)” has its median near -0.011; the highest 2% begin near 0.28. The list shows a part of the results.

Molecular target: T1, Gcr1 (UniProt P07261)
T1 sequence: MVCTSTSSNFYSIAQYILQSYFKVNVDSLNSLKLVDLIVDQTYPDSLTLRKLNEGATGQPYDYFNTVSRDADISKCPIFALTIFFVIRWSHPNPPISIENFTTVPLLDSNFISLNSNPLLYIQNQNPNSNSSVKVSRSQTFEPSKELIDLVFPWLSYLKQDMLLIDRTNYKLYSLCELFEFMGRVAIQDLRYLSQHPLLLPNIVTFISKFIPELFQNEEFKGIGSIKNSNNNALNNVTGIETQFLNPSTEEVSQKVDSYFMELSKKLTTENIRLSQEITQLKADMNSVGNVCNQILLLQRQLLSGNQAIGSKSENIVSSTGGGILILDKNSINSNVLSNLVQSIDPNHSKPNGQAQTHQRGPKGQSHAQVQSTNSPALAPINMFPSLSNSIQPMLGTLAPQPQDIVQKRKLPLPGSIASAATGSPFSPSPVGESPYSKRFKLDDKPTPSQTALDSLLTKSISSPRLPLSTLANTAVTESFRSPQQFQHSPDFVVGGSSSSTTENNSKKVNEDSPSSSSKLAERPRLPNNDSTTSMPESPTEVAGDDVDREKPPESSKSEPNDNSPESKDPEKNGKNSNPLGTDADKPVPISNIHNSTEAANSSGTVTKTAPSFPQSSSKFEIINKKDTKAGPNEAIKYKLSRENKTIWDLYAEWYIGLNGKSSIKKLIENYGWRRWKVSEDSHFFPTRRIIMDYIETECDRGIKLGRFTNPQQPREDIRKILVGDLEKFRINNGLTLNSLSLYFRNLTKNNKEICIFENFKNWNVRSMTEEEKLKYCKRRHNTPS
Assay: PBM E-score (8-mer binding enrichment) (E-score (-0.5 to 0.5)); higher = stronger / more preferred TF binding; most listed sequences are background and not binding sites
Conditions: protein concentration: 100 nM; construct: GST-full length
Summary of the method: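 Masliner-normalised scans of fluorescent anti-GST signal were the basis for scoring. That signal came from GST-tagged yeast transcription factors applied at about 100-200 nM to double-stranded universal all-10-mer Agilent arrays on fresh or once-stripped slides. Each ungapped eight-base word, pooled with its reverse complement, received an E-score from the Universal PBM Analysis Suite.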

| Sequence | PBM E-score |
| --- | --- |
| CAGGTAAG | 0.0277 |
| AGGCGGTA | -0.111 |
| CTGCAGGA | 0.205 |
| CATACACG | 0.0935 |
| AGGTCGAA | -0.109 |
| CGACCCGA | -0.151 |
| AAGAATGT | 0.0927 |
| CCAGGCGG | 0.122 |
| AGACGCGC | 0.289 |
| GGTCCCAC | 0.11 |
| GGGTGGCA | -0.112 |
| CCCTTTCA | 0.0273 |
| GTGGCCTA | -0.202 |
| GGTTACGA | 0.045 |
| ATGGGGTG | 0.0664 |
| CAGCGAAA | 0.124 |
| ATTAAGGC | -0.0607 |
| CACTTTAC | 0.117 |
| AGGACGCC | 0.453 |
| CTAATCAA | 0.141 |
| CGTCTAAC | 0.138 |
| CCGTATCA | 0.0711 |
| ATGAATCA | -0.165 |
| GACAAGTC | -0.145 |
| ATAACGGG | 0.0248 |

| Sequence | PBM E-score |
| --- | --- |
| TTGATAAA | -0.0458 |
| ATTACAAG | 0.142 |
| CACGGGGA | -0.0961 |
| CTCTTCCA | -0.0725 |
| ACATTATA | 0.111 |
| GCTAATAC | -0.0825 |
| AGTACGGG | -0.0604 |
| TAAGCTAA | -0.153 |
| CTTTCGGC | -0.0722 |
| CCTTCGTA | 0.00994 |
| CACATCTG | -0.0906 |
| AATCGCAA | 0.0343 |
| CTGTTTAA | 0.219 |
| ATACCGGC | 0.129 |
| GAGAGGCA | 0.0587 |
| AGGCACCG | 0.04 |
| CCACACCA | -0.0013 |
| CGTGGCAA | -0.0859 |
| TCATTTAA | 0.0582 |
| CGATAGTC | -0.179 |
| AGAACTCT | -0.27 |
| GTACCGAC | -0.168 |
| TCTGGTAA | 0.246 |
| ATGGATAC | 0.106 |
| AAACAAAG | 0.0917 |

| Sequence | PBM E-score |
| --- | --- |
| AAGTAAAC | -0.0274 |
| GTCGCCAC | 0.189 |
| CATATAGC | 0.132 |
| GCGTAACC | -0.0742 |
| ATGGTTAC | 0.0776 |
| CGCCACCA | 0.00609 |
| CAGAATCC | 0.161 |
| CCGTTGAA | -0.173 |
| ACGAGTGC | -0.138 |
| ACTAAACC | -0.121 |
| CCCACCTA | -0.0634 |
| TATAACGA | -0.179 |
| ATCGGCTA | 0.184 |
| GAGTGACC | 0.068 |
| GGCAATTA | 0.0611 |
| CGACTTAC | 0.117 |
| GGATTGGA | 0.171 |
| ACAGTAAA | 0.0252 |
| AAGGGCAG | -0.0882 |
| ATCGATGC | 0.0471 |
| CCCGTCAC | -0.00942 |
| ATGAGGAG | -0.0645 |
| AGAAGCCA | 0.362 |
| AATCACGG | -0.081 |
| GATCTTCC | 0.109 |

| Sequence | PBM E-score |
| --- | --- |
| AGTATCAC | -0.0564 |
| TTCACCAA | 0.133 |
| GTCCAGGA | 0.0561 |
| GCATTTCC | -0.0713 |
| AGCGGCAT | 0.0618 |
| AAATTTAT | 0.072 |
| CCGACTAG | -0.141 |
| CTTAATGA | -0.0211 |
| GACGATAA | 0.0266 |
| AGAATCGC | -0.13 |
| CACTATGC | 0.125 |
| GAGATTTA | 0.0724 |
| CGGCACAG | -0.119 |
| AACACTAC | 0.00557 |
| ATGCGGAA | 0.186 |
| CCACACGG | 0.0495 |
| GTCGTACA | -0.144 |
| GGATTGAC | -0.0943 |
| CAAAGCTA | -0.204 |
| ACGCCAAA | 0.0403 |
| AGCCGTGC | -0.0926 |
| ACTTAATA | 0.0744 |
| CCGCGAAA | 0.0578 |
| ACCTGAGG | 0.0189 |
| GCGATAGA | 0.0698 |

| Sequence | PBM E-score |
| --- | --- |
| AAGATTAC | -0.09 |
| AAGTATCA | -0.154 |
| ATCGTTGG | -0.247 |
| GTTACCCA | -0.141 |
| ATATGCAC | -0.0108 |
| AGGTGGTC | -0.0683 |
| GATCGGAC | -0.00114 |
| GCCTGGAA | 0.0457 |
| ACATGTAG | 0.189 |
| CAAACCAA | 0.0373 |
| ACACGCGG | -0.0057 |
| GCTACACC | -0.16 |
| ATATAGCA | 0.126 |
| CGATAACA | -0.0286 |
| CGTTCAGA | 0.0533 |
| CGGCGATA | 0.198 |
| AGTACAAA | -0.135 |
| AAACTGCC | -0.114 |
| CGCTACCC | -0.214 |
| CAACACTG | 0.0305 |
| ACACAAAT | 0.182 |
| AAGCATGG | -0.203 |
| ACTGATAT | 0.0718 |
| AGCTAACC | -0.145 |
| CCGCAGAG | -0.131 |

| Sequence | PBM E-score |
| --- | --- |
| AACACGAG | 0.0585 |
| ATTGCATA | -0.0467 |
| ATGATGCA | -0.101 |
| CATCACTC | 0.00067 |
| TCAGCCCA | -0.291 |
| GAAGCCTA | 0.221 |
| AGTTGACG | 0.0851 |
| AGTGAGCC | -0.184 |
| GATCAAAC | -0.231 |
| CTGTCACC | 0.0918 |
| CTTTAAAG | -0.0252 |
| CATGTCAG | -0.182 |
| CTAGAATC | 0.0358 |
| GCTTGGCC | -0.0932 |
| CGGGGCAA | -0.0073 |
| CCTTCAAC | -0.0179 |
| CCCGTACG | -0.27 |
| ACGACTGG | -0.173 |
| CCTGCCTC | -0.29 |
| ATCGTCAT | 0.149 |
| CACTAACA | 0.0523 |
| ACACGAAC | 0.0505 |
| CGTTTCAC | -0.0924 |
| CAATTAAA | 0.157 |
| CGACGTCA | -0.0398 |

| Sequence | PBM E-score |
| --- | --- |
| AGTAAACC | -0.199 |
| TTAGAGAA | -0.0293 |
| CACGGACG | 0.0339 |
| CGCTTGCC | -0.071 |
| CAGGATCC | 0.345 |
| AGACTATA | -0.0926 |
| AATTTCCT | -0.044 |
| AATAGTCC | -0.197 |
| GAACCCCC | 0.0349 |
| ATGCCTCC | 0.0648 |
| CCCTCAGA | -0.197 |
| CGGACACA | -0.186 |
| ACCGAAGT | -0.151 |
| GGGAGGAC | -0.344 |
| TCACTTCA | -0.082 |
| GCAACAAC | -0.0872 |
| CGAAATAA | 0.0588 |
| ATGCAATA | -0.0876 |
| AGTCCCAC | -0.0297 |
| CGAATTCC | 0.256 |
| ACAACCAA | 0.0609 |
| GAGCATAC | -0.155 |
| AAAGCTTA | -0.0667 |
| AGACATCT | 0.00522 |
| AAGCGTTC | 0.0323 |

| Sequence | PBM E-score |
| --- | --- |
| GATTCCCA | 0.334 |
| GCCTGGCA | -0.0149 |
| AATAAAAT | 0.11 |
| ATCTCCAC | -0.0888 |
| AGCACCGG | 0.166 |
| GGTGTAGA | -0.122 |
| ACTCGTTA | -0.226 |
| ATTAGTCC | -0.152 |
| AAGACACC | -0.0424 |
| AAACTAAC | -0.0608 |
| TCTCTCAA | -0.0205 |
| AGACAACA | -0.17 |
| GGAGCGTA | 0.0423 |
| ACAAATAT | 0.0851 |
| TCAGCGCA | 0.0204 |
| ATGTGTGG | -0.0628 |
| GATGCGCA | 0.134 |
| GGCGGTAC | -0.107 |
| AGGTTTGA | 0.00972 |
| AAGAGGAA | 0.285 |
| CTGGTAAG | 0.225 |
| ACATATTA | 0.179 |
| AGAATCAG | 0.0153 |
| GAGTAATC | 0.0146 |
| AAAATGTT | 0.0999 |

| Sequence | PBM E-score |
| --- | --- |
| GTAAATCA | 0.21 |
| GCTGGACC | -0.153 |
| ATGTATCA | -0.0948 |
| AACCGATT | 0.00151 |
| CGAACCAC | 0.0103 |
| AGTGCTCC | -0.116 |
| GGGACGGA | -0.0942 |
| AAGTACGA | -0.0524 |
| GACTGCTC | -0.26 |
| GAAGCCGC | 0.439 |
| CGGAACAG | -0.0225 |
| TCCCACCA | 0.0307 |
| CAGGCATA | -0.095 |
| GATAGCAC | 0.0962 |
| ACTCGTAT | 0.0663 |
| AGAGACCC | -0.196 |
| GTGAGCGA | -0.193 |
| AGGCTGAA | -0.0502 |
| AAGGGTGA | -0.182 |
